Reference: publication PMC7819943, “Rice protein-binding microarrays: a tool to detect cis-acting elements near promoter regions in rice”
This is one part of the list.

Target: T1, OsWOX13 (Oryza sativa, UniProt Q5QMM3 1-267)
T1 sequence: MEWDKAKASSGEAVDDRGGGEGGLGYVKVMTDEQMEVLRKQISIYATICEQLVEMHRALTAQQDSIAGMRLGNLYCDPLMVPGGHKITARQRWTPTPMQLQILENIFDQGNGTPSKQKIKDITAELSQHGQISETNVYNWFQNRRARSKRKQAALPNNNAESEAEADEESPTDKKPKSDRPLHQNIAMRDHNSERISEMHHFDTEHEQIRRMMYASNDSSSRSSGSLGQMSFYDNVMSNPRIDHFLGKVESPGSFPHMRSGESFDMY
Test: protein-binding microarray (RPBM); PBS, 2% BSA, 51.3 ng/ul salmon testes DNA, 50 uM zinc acetate, 200 nM TF, 25 C, 1 h; high values mean tight binding
Conditions: protein: recombinant; tags: N-terminal polyhistidine and DsRed monomer fusion (pET32a); label: CyDye5-dUTP incorporated in the synthesized complementary strand; 3' TTTTT single-stranded linker to array surface; dsDNA, one strand shown
In short: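 A custom Agilent array was converted to double-stranded form by primer extension with Cy5-dUTP and blocked with 2% BSA. Protein at 200 nM in PBS with 2% BSA, salmon testes DNA and 50 µM zinc acetate was applied for 1 h at 25 °C, followed by washing. The proteins were polyhistidine–DsRed N-terminal fusions of transcription factors, expressed in E. coli BL21-CodonPlus and Ni–NTA-purified. The binding signal is per-feature fluorescence intensity (arbitrary units) from an Axon 4000B scanner.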

How did the binding signal turn out when “TGAAATTGCATATTTGTGGAGTGATATATCACATGTTAATCGGAGTCACCTAGTGCAG” was run?
The binding signal was 4410 fluorescence intensity (a.u.).

“ACAAAACTAATAACAAAACAAATTACAGATTCCGTCAGAACGGAGTCACCTAGTGCAG” was tested. Which binding signal did it give?
The binding signal was 3400 fluorescence intensity (a.u.).

With “CACAATCATAATCATTCTTTTCATGTATTTTCTCAATCAACGGAGTCACCTAGTGCAG” as the sequence, how does the binding signal read?
The binding signal was 5880 fluorescence intensity (a.u.).

With “TTAAACATTTCTGACAATAACTGGATCAATTGTATAGGTACGGAGTCACCTAGTGCAG” as the sequence, how does the binding signal read?
Its binding signal is 3840 fluorescence intensity (a.u.).

For “TGATTAATTAAGTATTAGTTTATCTTAAAATGATTAATATCGGAGTCACCTAGTGCAG”, which binding signal is on record?
The binding signal was 3500 fluorescence intensity (a.u.).

Which binding signal does the source give for “CTTAAATTGATTTATTTTGGAACGGAGAGAGTAATATGCACGGAGTCACCTAGTGCAG” here?
The binding signal was 53500 fluorescence intensity (a.u.).

“TTCCAAACACAGCCTAATTAAGCTAGCTGTGTCATCCGACCGGAGTCACCTAGTGCAG” was tested. Which binding signal did it give?
The binding signal was 3370 fluorescence intensity (a.u.).

How did the binding signal turn out when “TCCAATAGATATAACAATAAATTTTCATGTTATAACGGGACGGAGTCACCTAGTGCAG” was run?
The binding signal was 4920 fluorescence intensity (a.u.).

Which binding signal does the source give for “GGAGAAATTTAAATTGGAAGTGGTTAATGTGACATGTAGTCGGAGTCACCTAGTGCAG” here?
The binding signal was 34900 fluorescence intensity (a.u.).

Which binding signal does the source give for “GGCATTGACGTGACACTCACGTGACAATTATATCTCGGAACGGAGTCACCTAGTGCAG” here?
Its binding signal is 5080 fluorescence intensity (a.u.).

For “AAATCATTGTCGATCAATCAAATCTACCTCGTTCTGGAGACGGAGTCACCTAGTGCAG”, which binding signal is on record?
Its binding signal is 14500 fluorescence intensity (a.u.).

For “AATTAATTAGGCTCAATAGATTCGTCTCGCGAATTAGTCTCGGAGTCACCTAGTGCAG”, which binding signal is on record?
The binding signal was 33500 fluorescence intensity (a.u.).

With “TTTGATAGGTGCAACAACTCTTTGTTAGTCCATTTGGCTACGGAGTCACCTAGTGCAG” as the sequence, how does the binding signal read?
The binding signal was 7540 fluorescence intensity (a.u.).

For “AGCGATGGATAATTTAGTGATCGGTTTCCATGGCAGCGTTCGGAGTCACCTAGTGCAG”, which binding signal is on record?
Its binding signal is 4950 fluorescence intensity (a.u.).

How did the binding signal turn out when “TGTTGGGTTGGGTTGGGTTGGGTTGGGTCCGTCCGATGAACGGAGTCACCTAGTGCAG” was run?
The binding signal was 9220 fluorescence intensity (a.u.).

How did the binding signal turn out when “TACCAACCAATTAGTGCTAATAGGTAGCATTTTCTGTAGTCGGAGTCACCTAGTGCAG” was run?
The binding signal was 16100 fluorescence intensity (a.u.).

How did the binding signal turn out when “TATTGACTGCAACAATAATCATTATTACATGAAACATTATCGGAGTCACCTAGTGCAG” was run?
The binding signal was 15800 fluorescence intensity (a.u.).

“TTGAATTGTTAGATTTGTTTCAAGATTCTTACCGGCAAGGCGGAGTCACCTAGTGCAG” was tested. Which binding signal did it give?
Its binding signal is 7720 fluorescence intensity (a.u.).

For “CATACCAAATCAATTACCAATACCTAGTCATATGCTTCATCGGAGTCACCTAGTGCAG”, which binding signal is on record?
The binding signal was 10900 fluorescence intensity (a.u.).

“TTTTATGATTAATATTTTATTGTTATTAGATGATAAAACACGGAGTCACCTAGTGCAG” was tested. Which binding signal did it give?
The binding signal was 5150 fluorescence intensity (a.u.).

Which binding signal does the source give for “GTGTCGCCAGTGATTGCAGTTTCAGTTCGAAATTTCTCTACGGAGTCACCTAGTGCAG” here?
Its binding signal is 9490 fluorescence intensity (a.u.).

For “AAAATAATTCAGAAGATAGATTGATATGTGATAAATCACTCGGAGTCACCTAGTGCAG”, which binding signal is on record?
The binding signal was 24500 fluorescence intensity (a.u.).

Which binding signal does the source give for “TGTGACCGGTTTTGATTAGTTAAGGGACGCCGGGTATCTGCGGAGTCACCTAGTGCAG” here?
The binding signal was 13500 fluorescence intensity (a.u.).

Which binding signal does the source give for “ACTCCATTGCCTATAAATCACACGTACTAACTGGCGGGGTCGGAGTCACCTAGTGCAG” here?
The binding signal was 5380 fluorescence intensity (a.u.).

“ATGACAGATAAGCTAACTATTGTTCCTTCACCTGTCAAAACGGAGTCACCTAGTGCAG” was tested. Which binding signal did it give?
Its binding signal is 13100 fluorescence intensity (a.u.).

For “TTAATTGCCGAGGAAACTCGTCTACAGTCACTTCCCAACGCGGAGTCACCTAGTGCAG”, which binding signal is on record?
Its binding signal is 4080 fluorescence intensity (a.u.).

How did the binding signal turn out when “ATTGACACACTTAAATTTTACATCACACTCAATAAAAGTGCGGAGTCACCTAGTGCAG” was run?
Its binding signal is 9780 fluorescence intensity (a.u.).

Which binding signal does the source give for “TCCCTGGTTACTTGATTAGTCTGTGTGACGTGTAGCGGTTCGGAGTCACCTAGTGCAG” here?
Its binding signal is 8660 fluorescence intensity (a.u.).

How did the binding signal turn out when “GTATTTGGATAATTGGCAAACCTAAAAGTGGCAAATAGTTCGGAGTCACCTAGTGCAG” was run?
The binding signal was 9670 fluorescence intensity (a.u.).

With “AAGTAATTGGATGTTTTAAGGGACAAGGTTTGTCTTCTTACGGAGTCACCTAGTGCAG” as the sequence, how does the binding signal read?
Its binding signal is 28500 fluorescence intensity (a.u.).

With “AAACATTGATTGTGTTCCCCTGTTAATATGGATTTTATGGCGGAGTCACCTAGTGCAG” as the sequence, how does the binding signal read?
The binding signal was 21700 fluorescence intensity (a.u.).

For “TCCTATAATTTATAGATTATTATGGCCAGTCTAAACGGTTCGGAGTCACCTAGTGCAG”, which binding signal is on record?
Its binding signal is 14100 fluorescence intensity (a.u.).

For “CCACTTTTAAAATGTGGTAATTAAGGATTTGTAACAGTGGCGGAGTCACCTAGTGCAG”, which binding signal is on record?
Its binding signal is 5010 fluorescence intensity (a.u.).

How did the binding signal turn out when “GTTTGAATTTTCTAATTGCTTCTACTGTTTGCCTCAGCTCCGGAGTCACCTAGTGCAG” was run?
Its binding signal is 6270 fluorescence intensity (a.u.).

Which binding signal does the source give for “AAGTGCTAATTATTAATGGTGATTGAATTTATCCGAGCATCGGAGTCACCTAGTGCAG” here?
The binding signal was 16100 fluorescence intensity (a.u.).

Which binding signal does the source give for “GCCCAAATTGACCAGGCCCTGTTACGTCTCGTGCTCCCCTCGGAGTCACCTAGTGCAG” here?
Its binding signal is 32900 fluorescence intensity (a.u.).

“TTCCATTTAATTGCCTTGAGCAAACTAATGATACTTCTCGCGGAGTCACCTAGTGCAG” was tested. Which binding signal did it give?
The binding signal was 24500 fluorescence intensity (a.u.).

Which binding signal does the source give for “TAAATTGATATGAGTTATTAAGTAAGACATTGTAAAATGCCGGAGTCACCTAGTGCAG” here?
The binding signal was 19500 fluorescence intensity (a.u.).

“GTAATTAATTACTTGATTAACAATTAAATAATAATAGTTACGGAGTCACCTAGTGCAG” was tested. Which binding signal did it give?
Its binding signal is 33200 fluorescence intensity (a.u.).

Which binding signal does the source give for “AGCCTAATTACGTCATGATTTGACAATGTAATGATACCGTCGGAGTCACCTAGTGCAG” here?
The binding signal was 53500 fluorescence intensity (a.u.).

Which binding signal does the source give for “CGCTGATTAGTGCAAAATATTACAAGTCCTATATAGCTAACGGAGTCACCTAGTGCAG” here?
Its binding signal is 33900 fluorescence intensity (a.u.).

Which binding signal does the source give for “GTTGCCAATCAACAAAAGATTTCTTGAGCGTTGGCAGAACCGGAGTCACCTAGTGCAG” here?
Its binding signal is 19000 fluorescence intensity (a.u.).

Which binding signal does the source give for “GTGTGGAAATTGGAAATCGATCAGCAAGCTGCTGGAGCTACGGAGTCACCTAGTGCAG” here?
The binding signal was 3180 fluorescence intensity (a.u.).

Which binding signal does the source give for “ATCTTATGATTAGTGAAGAGTGTTGAAATTAAAACACATGCGGAGTCACCTAGTGCAG” here?
The binding signal was 14900 fluorescence intensity (a.u.).

With “AATAATTGCTCCTCGTCGCCGGAGCAGAAGGTCTCGAGGACGGAGTCACCTAGTGCAG” as the sequence, how does the binding signal read?
The binding signal was 9360 fluorescence intensity (a.u.).

“GCTTGCTTATTCAATCAGCTCAATTCCTAACAACAAGTTTCGGAGTCACCTAGTGCAG” was tested. Which binding signal did it give?
Its binding signal is 4940 fluorescence intensity (a.u.).

With “GTACAAATCAATTTTCTGTATACAGCTATAGAGGCGTGCACGGAGTCACCTAGTGCAG” as the sequence, how does the binding signal read?
The binding signal was 8520 fluorescence intensity (a.u.).

How did the binding signal turn out when “CACCGTGCTGTGTTAATGGGCTAATTTGTAGCGAGCGCCTCGGAGTCACCTAGTGCAG” was run?
Its binding signal is 3670 fluorescence intensity (a.u.).

How did the binding signal turn out when “CTAACTAATCTATCAGCAGAGGCAGCAAGCTCGTGCATGGCGGAGTCACCTAGTGCAG” was run?
The binding signal was 4460 fluorescence intensity (a.u.).

“TAAGCAATTATTGTATGAATGGGCTATTGCATTGGCTATACGGAGTCACCTAGTGCAG” was tested. Which binding signal did it give?
Its binding signal is 5610 fluorescence intensity (a.u.).

How did the binding signal turn out when “TTTGAATTTTCAATCTTAAATTTAGAGTTGATTTTGAAGTCGGAGTCACCTAGTGCAG” was run?
Its binding signal is 24700 fluorescence intensity (a.u.).

“TGGCAATTAATTAATCACGCGGTCTTAATATATACTCCCGCGGAGTCACCTAGTGCAG” was tested. Which binding signal did it give?
Its binding signal is 38400 fluorescence intensity (a.u.).

With “AAGCCTAATTAATCTATCATTAGCAAATGTTTACTATATCCGGAGTCACCTAGTGCAG” as the sequence, how does the binding signal read?
The binding signal was 32000 fluorescence intensity (a.u.).

For “CAGAATTGAGAGTTCACATATCCTCAGTGGTCAGAGTTCACGGAGTCACCTAGTGCAG”, which binding signal is on record?
Its binding signal is 6100 fluorescence intensity (a.u.).
